Reference: the supplement of paper PMC6531468
The list shows a part of the results. Read counts after selection give these values, which scatter widely. Scores sum up all selected molecules that hold the word; the word was not tested alone.

Legend:
Assay in all cases: 6-mer SELEX enrichment z-score vs GST control; IMP3 is the RNA-binding protein IGF2BP3; higher = more enriched by binding
IMP3 KH1-4 = conditions: construct: KH1-4 (164-579); SELEX round: R4
Method: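 SELEX-seq with GST-tagged IMP3 KH1-4 (Pro164-Lys579) and an N40 RNA pool, round 4. 6-mer z-score of sequence-tag enrichment normalised to the corresponding GST SELEX round; RNA k-mers written as DNA (T for U).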

IMP3 RRM1-2 = conditions: construct: RRM1-2 (1-163); SELEX round: R2
Method: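 SELEX-seq with GST-tagged IMP3 RRM1-2 (Met1-Asn163) and an N40 RNA pool, round 2. 6-mer enrichment z-score normalised to GST SELEX. RNA written as DNA (T = U).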

IMP3 full-length = IMP3 full-length (UniProt O00425); conditions: construct: FL IMP3 (1-579); SELEX round: R4
Method: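 SELEX-seq with GST-tagged full-length IMP3 and an N40 RNA pool, round 4. Each 6-mer is scored as an enrichment z-score of sequence tags containing it, normalised to the matching GST SELEX round. RNA written as DNA (T = U).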

IMP3 KH3-4 = conditions: construct: KH3-4 (377-579); SELEX round: R4
Method: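 SELEX-seq with GST-tagged IMP3 KH3-4 (Pro377-Lys579) and an N40 RNA pool, round 4. 6-mer z-score of sequence-tag enrichment normalised to the corresponding GST SELEX round; RNA k-mers written as DNA (T for U).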

UniProt O00425, sequence (O00425 whole entry): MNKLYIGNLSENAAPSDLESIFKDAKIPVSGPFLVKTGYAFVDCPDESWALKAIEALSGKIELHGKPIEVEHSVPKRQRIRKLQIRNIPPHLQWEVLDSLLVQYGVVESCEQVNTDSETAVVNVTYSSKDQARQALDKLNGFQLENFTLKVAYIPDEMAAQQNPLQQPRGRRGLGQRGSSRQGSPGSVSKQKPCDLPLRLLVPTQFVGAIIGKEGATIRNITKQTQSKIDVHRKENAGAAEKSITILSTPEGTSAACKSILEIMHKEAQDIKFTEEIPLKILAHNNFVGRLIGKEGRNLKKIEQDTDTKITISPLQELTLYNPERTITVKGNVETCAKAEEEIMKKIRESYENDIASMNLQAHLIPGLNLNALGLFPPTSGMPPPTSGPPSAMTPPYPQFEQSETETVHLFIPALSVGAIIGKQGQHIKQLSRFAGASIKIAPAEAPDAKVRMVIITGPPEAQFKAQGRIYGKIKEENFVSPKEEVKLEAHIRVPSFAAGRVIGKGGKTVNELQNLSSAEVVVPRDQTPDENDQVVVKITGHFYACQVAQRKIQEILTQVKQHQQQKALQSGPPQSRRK
IMP3 KH1-4, sequence (chain, as listed by the source): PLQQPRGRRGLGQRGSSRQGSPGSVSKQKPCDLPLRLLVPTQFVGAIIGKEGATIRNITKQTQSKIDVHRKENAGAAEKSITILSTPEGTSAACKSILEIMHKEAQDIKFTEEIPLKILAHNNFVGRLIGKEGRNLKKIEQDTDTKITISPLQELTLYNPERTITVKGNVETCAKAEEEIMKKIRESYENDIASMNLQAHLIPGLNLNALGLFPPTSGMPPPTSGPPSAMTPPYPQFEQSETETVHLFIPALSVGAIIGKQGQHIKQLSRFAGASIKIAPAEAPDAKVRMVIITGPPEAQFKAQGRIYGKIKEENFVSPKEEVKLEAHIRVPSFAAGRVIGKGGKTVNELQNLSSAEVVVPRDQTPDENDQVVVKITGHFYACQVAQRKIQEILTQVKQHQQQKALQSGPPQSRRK
IMP3 KH3-4, sequence (chain, as listed by the source): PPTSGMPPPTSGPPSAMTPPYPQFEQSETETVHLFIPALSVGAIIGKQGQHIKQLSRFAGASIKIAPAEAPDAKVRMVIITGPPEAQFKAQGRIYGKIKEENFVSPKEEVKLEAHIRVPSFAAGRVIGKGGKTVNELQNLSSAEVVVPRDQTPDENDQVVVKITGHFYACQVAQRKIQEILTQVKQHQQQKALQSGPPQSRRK
IMP3 RRM1-2, sequence (chain, as listed by the source): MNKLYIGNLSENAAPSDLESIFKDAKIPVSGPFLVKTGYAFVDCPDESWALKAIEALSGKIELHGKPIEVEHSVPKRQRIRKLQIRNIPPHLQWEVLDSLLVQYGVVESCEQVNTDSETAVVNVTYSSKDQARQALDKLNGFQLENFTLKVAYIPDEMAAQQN

Sequence	6-mer SELEX enrichment z-score (IMP3 KH1-4)	6-mer SELEX enrichment z-score (IMP3 RRM1-2)	6-mer SELEX enrichment z-score (IMP3 full-length)	6-mer SELEX enrichment z-score (IMP3 KH3-4)
GAAATC	-0.554	-0.595	-0.67	-0.631
TCCATA	0.951	0.422	0.545	0.536
CCGCAG	-0.187	0.047	0.363	-0.505
CATAGG	0.604	1.04	0.951	0.535
GAAAGG	0.165	-1.2	-0.521	0.579
TTGCGT	-0.956	0.404	-0.496	-0.597
CCAGGA	-0.228	-0.491	-0.471	-0.442
AACCGA	-2.73	-2.17	-2.19	-2.61
CTCAAA	-1.31	-0.17	-0.934	-1.39
AAGAGG	0.894	-0.801	0.059	1.32
CTCATA	0.6	1.09	0.76	0.438
CGTGCT	-0.328	0.263	-0.011	-0.252
TTCTCT	0.655	0.515	0.278	0.521
ACACGG	1.1	0.432	1.9	0.638
GATATA	1.62	-0.416	0.17	2.32
CACTCT	0.119	0.54	0.128	-0.166
TATGTC	0.58	0.244	0.245	0.488
TTCTTT	0.947	0.618	0.421	0.954
TGGTGT	-0.089	0.496	-0.01	0.11
TCGCCC	-0.267	-0.193	-0.284	-0.834
GACACG	-0.003	-0.434	0.355	-0.342
TGGGTA	-0.056	0.368	0.13	0.203
CCCACC	-1.67	-0.593	-1.46	-2.51
TCTTAC	0.239	0.325	0.076	0.089
